{"source": "PubChem BioAssay AID1345082", "about": "(National Center for Advancing Translational Sciences (NCATS), 2018)", "note": "In all, about 94,000 compounds went through this assay and about 4,000 (4.3%) were called active. Inconclusive means that the source gave no clear call. Such entries were picked first, then a sample of the others. The call rests on the fitted dose curve; in most records, active means well fitted inhibition curve with a large enough effect; inconclusive means small, poorly fitted or top-dose-only effect; inactive means no such curve, though single readings can be large or run the other way. Potencies of inconclusive entries are doubtful fits and often do not repeat. On the % scale 0 is the no-effect control and ±100 the full control effect; potency means the concentration at half of the fitted maximal effect; tags describe the fitted curve by direction and shape.", "data": [{"assay": "Cytotoxic Profiling in NIH 3T3 Cell Line of Diverse Libraries Using Quantitative High-Throughput Screening; further: nearly all actives have a fitted effect of over 55% in size", "details": "NIH 3T3 viability, CellTiter-Glo ATP luminescence, 48-72 h; activity change, negative = cytotoxicity: at 96.7 µM (top of the series); series mostly up to 96.7 µM", "method_in_brief": "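ATP-dependent luminescence (CellTiter-Glo) served as the viability signal for NIH 3T3 cells treated with compound for 48 or 72 hr at 37 °C.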", "values": [{"smiles": "COc1ccc(-c2ccccc2C(=O)N2CCC(NC(=O)c3cccnc3)CC2)nn1", "activity change, negative = cytotoxicity": "inactive: 2.24%"}, {"smiles": "CC1(CNC(=O)c2cnccn2)CCOCC1", "activity change, negative = cytotoxicity": "inactive: 2.68%"}, {"smiles": "Cc1cc(NC(=O)N2CCCC(Cn3c(C)nc4cccnc43)C2)ccc1Br", "note": "(stereo unspecified)", "Potency": "inconclusive: 15.8 µM [inhibitor, full curve, poor fit]"}, {"smiles": "CC(C)CCNC(=O)N1CC(C(=O)N(C)C)C2(CCOCC2)C1", "note": "(stereo unspecified)", "Potency": "inconclusive: 70.8 µM [inhibitor, partial curve, poor fit]"}, {"smiles": "CCOc1ccc(CCNC(=O)Cn2cccc2-c2nc(-c3ccc(F)cc3)no2)cc1OCC", "Potency": "inconclusive: 44.7 µM [inhibitor, partial curve, poor fit]"}, {"smiles": "COCCOC1CCOC2(CCN(C(=O)c3cccc(F)c3)CC2)C1", "note": "(stereo unspecified)", "activity change, negative = cytotoxicity": "inactive: 1.46%"}, {"smiles": "O=C(COc1ccccc1)N1CCC(O)(c2csc(CN3CCc4ccccc4C3)n2)CC1", "Potency": "inconclusive: 50.1 µM [inhibitor, partial curve, poor fit]"}, {"smiles": "Cc1ccc(Nc2ccnc(N3CCC(NC(=O)c4ccc(C)cc4)CC3)n2)cc1", "Potency": "inconclusive: 15.8 µM [inhibitor, full curve, poor fit]"}, {"smiles": "CCN1C(=O)CN(C(=O)CCc2ccccc2)CC12CCOCC2", "activity change, negative = cytotoxicity": "inactive: -23.5%"}, {"smiles": "Cc1nc2c(c(-c3ccc(O)cc3)n1)CN(C(=O)Nc1ccccc1)CCC2", "activity change, negative = cytotoxicity": "inactive: -7.23%"}, {"smiles": "CS(=O)(=O)Nc1cc(-c2noc([C@@H]3CCCN3Cc3ccccc3F)n2)ccn1", "Potency": "inconclusive: 79.4 µM [inhibitor, partial curve, poor fit]"}, {"smiles": "O=C(N[C@H]1CCN2C(=O)N(c3cccc(C(F)(F)F)c3)C(=O)[C@@H]2C1)c1ccncc1", "Potency": "inconclusive: 89.1 µM [inhibitor, partial curve]"}, {"smiles": "Cn1ccnc1CN1C(=O)CO[C@H]2CN(C(=O)NCc3ccccc3)C[C@H]21", "Potency": "inconclusive: 112 µM [inhibitor, partial curve, poor fit]"}, {"smiles": "COc1cccc(N2CC(C(=O)NCc3cccc(Cl)c3)NC2=O)c1", "note": "(stereo unspecified)", "Potency": "inconclusive: 50.1 µM [inhibitor, partial curve, poor fit]"}, {"smiles": "O=[S+]([O-])(c1cccc(C(F)(F)F)c1)N1CCC2(CC(c3cccc(C(F)(F)F)c3)=NO2)C1", "note": "(stereo unspecified)", "Potency": "inconclusive: 17.8 µM [inhibitor, full curve, poor fit]"}, {"smiles": "C[C@]1(CO)[C@H]2Cc3sc(NC(=O)c4c(F)cccc4F)nc3[C@@H](CC(=O)NCc3cccnc3)[C@]2(C)CC[C@H]1O", "Potency": "inconclusive: 79.4 µM [inhibitor, partial curve, poor fit]"}, {"smiles": "COC(=O)CNC(=O)c1nc(-c2ccc(Cl)cc2)c2ccccn12", "Potency": "inconclusive: 11.2 µM [inhibitor, partial curve, poor fit]"}, {"smiles": "N#Cc1cccc(C(=O)N2CCCCCNC(=O)[C@@H]3CCC[C@@H]32)c1", "activity change, negative = cytotoxicity": "inactive: -26.1%"}, {"smiles": "CCN(CCOC)Cc1cn(-c2ccc(F)cc2F)nc1-c1ccccc1C", "activity change, negative = cytotoxicity": "inactive: -15.5%"}, {"smiles": "Cc1cn2nc(C(=O)NCc3ccc(C(C)C)cc3)cc2c(=O)[nH]1", "activity change, negative = cytotoxicity": "inactive: -30.5%"}, {"smiles": "COc1cc(=O)n2c(c1C(=O)Nc1cccc(C(C)C)c1)CCCC2", "outcome": "inactive"}, {"smiles": "C[C@H]1[C@@H]2[C@@H](O)C([C@H](C)C(=O)N(C)Cc3ccccc3)CC[C@@]2(C)CC[C@@H]1NC(=O)c1ccccn1", "note": "(stereo partly specified)", "Potency": "inconclusive: 56.2 µM [inhibitor, partial curve, poor fit]"}, {"smiles": "Cc1cc(N2CCC3(CC2)CC(c2ccccc2)C(=O)N3C)ncn1", "note": "(stereo unspecified)", "Potency": "active: 79.4 µM"}, {"smiles": "Cn1ncc2c(C(=O)NC3CC3)cc(-c3ccc(Cl)nc3)nc21", "Potency": "inconclusive: 50.1 µM [inhibitor, full curve]"}, {"smiles": "CNC(=O)c1cc(C2CC2)nc2onc(C3CCN(C(=O)c4ccccc4)CC3)c12", "activity change, negative = cytotoxicity": "inactive: -28.3%"}, {"smiles": "O=C(C[C@@H]1CCNC[C@@H]1Cc1cc(-c2ccc(F)cc2)on1)Nc1ccccc1", "Potency": "active: 35.5 µM"}, {"smiles": "O=C(CCC1CCCC1)N1CC(CO)C2(CCNCC2)C1", "note": "(stereo unspecified)", "activity change, negative = cytotoxicity": "inactive: -4.07%"}, {"smiles": "CCc1ccccc1S(=O)(=O)N1CCC2(CC1)CN(C(C)=O)CC2COC", "note": "(stereo unspecified)", "Potency": "inconclusive: 79.4 µM [inhibitor, partial curve, poor fit]"}, {"smiles": "O=C(Nc1ccccc1Cl)C1CCCN1c1nc2ncccc2o1", "note": "(stereo unspecified)", "Potency": "inconclusive: 56.2 µM [inhibitor, partial curve, poor fit]"}, {"smiles": "O=C1NC(C(=O)N2CCN(Cc3ccc(F)cc3F)CC2)Cn2cccc21", "note": "(stereo unspecified)", "activity change, negative = cytotoxicity": "inactive: -9.59%"}, {"smiles": "CC1(c2noc(-c3ccccc3)n2)CCN(C(=O)C2CCN(S(=O)(=O)c3cnc[nH]3)CC2)CC1", "Potency": "inconclusive: 44.7 µM [inhibitor, partial curve, poor fit]"}, {"smiles": "CN(C)Cc1nnc(C2CC(NC(=O)c3ccc4ncccc4c3)C2)n1C", "note": "(stereo unspecified)", "activity change, negative = cytotoxicity": "inactive: -20.1%"}, {"smiles": "Cc1ccc(CN2C[C@@H]3C(=O)N(CCc4ccccc4)C(=O)[C@@H]3C2)c(C)c1", "Potency": "inconclusive: 50.1 µM [inhibitor, partial curve, poor fit]"}, {"smiles": "COCCn1c(C)nnc1-c1cc(-c2ccnc(C)c2)ccn1", "Potency": "inconclusive: 112 µM [inhibitor, single point]"}, {"smiles": "Cc1nn2c(c1-c1ccnn1C(C)C)N(C(=O)Cc1ccc(O)cc1)CCC2", "Potency": "inconclusive: 56.2 µM [inhibitor, partial curve, poor fit]"}, {"smiles": "O=C(NC1CCCc2c1cnn2-c1ccc(F)cc1F)c1ccsc1", "note": "(stereo unspecified)", "Potency": "inconclusive: 50.1 µM [inhibitor, partial curve, poor fit]"}, {"smiles": "Cc1ccc(CCNC(=O)C2CCN(c3cc(C(F)(F)F)ncn3)CC2)cc1", "Potency": "inconclusive: 44.7 µM [inhibitor, partial curve, poor fit]"}, {"smiles": "CNC(=O)[C@@H](C1CCCCC1)N1CCC[C@H]1C(=O)N1CCN(CCOC)CC1", "activity change, negative = cytotoxicity": "inactive: -10.4%"}, {"smiles": "CCN(CC)Cc1nc(C2(O)CCN(Cc3ccc(C(F)(F)F)cc3)CC2)cs1", "Potency": "inconclusive: 63.1 µM [inhibitor, partial curve, poor fit]"}, {"smiles": "COc1ccc(-c2noc([C@@H]3CCCN3C(=O)Cc3cccc(C)c3)n2)cc1", "Potency": "inconclusive: 50.1 µM [inhibitor, partial curve, poor fit]"}, {"smiles": "COc1ccccc1-c1ccc(CN)cc1", "Potency": "inconclusive: 100 µM [inhibitor, partial curve]"}]}]}
